Laboratory results from paper PMC4336329 (PLoS ONE, 2015).
Among all 310,000 compounds or so, about 14,000 (4.5%) showed an effect of 50% or more. Effects have a minus sign here. Some of the results follow.

molecular target: human ether-à-go-go-related gene (hERG) potassium channel (human, UniProt Q12809); assay: primary screen, population patch clamp on CHO cells stably expressing hERG
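Note: peak tail current of the secondary pulse compared with the same well before compound.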

human ether-à-go-go-related gene (hERG) potassium channel, sequence (Q12809 whole entry, looked up): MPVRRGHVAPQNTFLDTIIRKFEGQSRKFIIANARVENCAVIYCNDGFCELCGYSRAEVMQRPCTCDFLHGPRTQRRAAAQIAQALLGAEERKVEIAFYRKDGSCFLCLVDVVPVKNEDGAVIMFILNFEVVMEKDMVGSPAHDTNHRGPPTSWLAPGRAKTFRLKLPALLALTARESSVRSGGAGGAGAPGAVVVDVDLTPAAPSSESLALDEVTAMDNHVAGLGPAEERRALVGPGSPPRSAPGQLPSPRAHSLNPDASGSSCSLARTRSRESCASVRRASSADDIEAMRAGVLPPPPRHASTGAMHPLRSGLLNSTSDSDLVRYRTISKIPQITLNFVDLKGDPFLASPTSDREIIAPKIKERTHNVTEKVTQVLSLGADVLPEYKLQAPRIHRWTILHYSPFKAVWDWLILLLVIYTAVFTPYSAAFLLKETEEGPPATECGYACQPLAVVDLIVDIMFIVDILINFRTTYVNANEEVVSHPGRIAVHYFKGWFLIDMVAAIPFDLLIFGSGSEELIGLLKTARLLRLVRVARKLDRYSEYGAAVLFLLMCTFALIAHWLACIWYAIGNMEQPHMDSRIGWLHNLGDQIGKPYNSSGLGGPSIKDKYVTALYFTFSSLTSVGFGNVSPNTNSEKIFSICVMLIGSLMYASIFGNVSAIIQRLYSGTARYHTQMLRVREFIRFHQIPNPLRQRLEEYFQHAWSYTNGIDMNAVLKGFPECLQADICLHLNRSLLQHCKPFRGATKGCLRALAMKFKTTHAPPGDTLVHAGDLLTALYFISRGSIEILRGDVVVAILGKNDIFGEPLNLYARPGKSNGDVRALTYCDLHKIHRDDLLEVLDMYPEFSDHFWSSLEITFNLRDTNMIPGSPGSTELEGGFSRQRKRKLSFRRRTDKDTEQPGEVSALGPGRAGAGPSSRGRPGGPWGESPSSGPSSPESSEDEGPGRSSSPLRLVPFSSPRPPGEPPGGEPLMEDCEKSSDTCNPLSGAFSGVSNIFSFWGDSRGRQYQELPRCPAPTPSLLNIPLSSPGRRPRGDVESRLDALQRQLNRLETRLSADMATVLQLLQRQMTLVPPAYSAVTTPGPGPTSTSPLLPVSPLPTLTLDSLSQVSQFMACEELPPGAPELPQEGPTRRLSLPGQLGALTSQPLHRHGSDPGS

Structure (SMILES) | hERG current change (%, negative = inhibition) at 10uM
O=C(N/N=C1\CCCc2ccccc21)c1ccc([N+](=O)[O-])cc1Cl | -3.01%
Cc1ccc(N=C(NO)c2nonc2N)cc1 | 10.1%
O=S(=O)(c1ccc(Cl)cc1)N1CCC(c2nc3ccccc3[nH]2)CC1 | 1.05%
COc1cc2c(cc1OC)CN(CC(=O)Nc1ccc(C)cc1)CC2 | -16.4%
COc1ccccc1NS(=O)(=O)c1ccc(O)c(C(=O)OCC(=O)N2c3ccccc3CC2C)c1 (centres unmarked) | -9.57%
COc1cc2[nH]c3c(=O)n(CCN4CCCCC4)cnc3c2cc1OC | 6.02%
COC(=O)c1ccccc1NC(=O)CN1CCC(NC(=O)c2ccc(C)cc2)CC1 | 8.67%
Cc1ccc(OCC(=O)Nc2ccc3c(c2)nc(CCN2CCC(C)CC2)n3C)cc1 | -70.6%
COC(=O)c1ccccc1NC(=O)CSc1nccc(C)n1 | 9.31%
COc1ccc(NC(=O)c2cc(CC(C)C)nc3ccccc23)cc1 | 10.8%
Cc1cc(C)c(NC(=O)Cn2nc(-c3ccccc3)nc2-c2ccccc2)c(C)c1 | -18.3%
Cc1cc(=S)c2cccc(C)c2[nH]1 | 9.4%
O=C1N/C(=C/c2ccsc2)C(=O)N1c1ccccc1 | -2%
O=C(NCCOC12CC3CC(CC(C3)C1)C2)c1cccc(Br)c1 | 1.8%
O=C1NC(=O)[C@@H]2C3c4ccccc4C=CN3[C@H](C(=O)c3cccs3)[C@H]12 (some centres unmarked) | 7.35%
COc1cc(SC)ccc1C(=O)OC1CCOC1=O (centres unmarked) | 4.34%
COc1cccc(CNC(=O)[C@H](CC(C)C)NC(=O)N2CCn3c2nc2ccccc23)c1 | -13.3%
Cc1oc(-c2cccc(Cl)c2)nc1CN1CCCC(C(=O)NCCCN2CCOCC2)C1 (centres unmarked) | -28.1%
O=C(CSc1nc2ccccc2s1)N/N=C/c1ccccc1C(=O)O | 30.5%
CC(OC(=O)c1cc(=O)[nH]c2ccccc12)C(=O)Nc1ccc(Cl)cn1 (centres unmarked) | 1.32%
CCOc1ccc(N(CC(=O)NCCSCc2ccccc2)S(C)(=O)=O)cc1 | 3.59%
CCOc1ccc(CCNC(=O)c2nnn(CC(=O)Nc3ccccc3C)c2N)cc1OCC | 12.4%

Structure (SMILES) | hERG current change (%, negative = inhibition) at 10uM
O=C(NC1CCCC1)c1ccc2c(c1)S(=O)(=O)c1ccccc1C2=O | -11.2%
O=C(COC(=O)c1cccnc1Cl)Nc1cc(S(=O)(=O)N2CCOCC2)ccc1Cl | -24.5%
Cn1c(C(C(=O)NCC2CCCO2)N(CCc2ccccc2)C(=O)Cn2nnc3ccccc32)nc2ccccc21 (centres unmarked) | -1.42%
CCN1CCN(CC(=O)Nc2cccc(C)c2C)C(=O)C1=O | 4.06%
CCc1cc(C(c2ccccc2OC)N2CCOCC2)c(NC(=O)c2ccccc2)s1 (centres unmarked) | 21.3%
CCOC(=O)c1c(NC(=O)CN2C(=O)NC3(CCC(C)CC3)C2=O)sc(C)c1-c1ccc(C)cc1 (centres unmarked) | -3.59%
Cc1cc(NCCN)nc2ccccc12.O=[N+]([O-])O | 11.1%
O=C(Cc1ccccc1)NC1CCN(C(=O)NCc2ccccc2)CC1 | -11.2%
COc1ccc(-c2c[n+](CC(=O)c3cccs3)c3n2CCC3)cc1.[Br-] | 10.4%
CC(C)CCN(C(=O)Cc1ccccc1F)c1c(N)n(Cc2ccccc2)c(=O)[nH]c1=O | 13.1%
N#C/C(=C(/O)COC(=O)c1ccc(Cl)c(S(=O)(=O)N2CCOCC2)c1)c1nc2ccccc2[nH]1 | -0.927%
CCOC(=O)N1CCN(C(=O)c2cccc(OC)c2OC)CC1 | -0.263%
COc1ccc(OCC(=O)NNC(=O)Nc2cccc(Cl)c2)cc1 | 32%
O=c1n(Cc2ccccc2)nc2n1-c1ccccc1SC2 | -5.34%
CSCCC(NS(=O)(=O)c1ccc(Cl)cc1)C(=O)OCC(=O)N1CCCc2ccccc21 (centres unmarked) | -5.26%
CCc1nnc(NC(=O)CN2CCN(S(C)(=O)=O)CC2)s1 | -2.78%
O=C(CSc1nnc(CNC(=O)c2ccco2)o1)Nc1nc2ccccc2s1 | 16.1%
CC1(C(=O)N/N=C/c2ccccc2)CC1(Br)Br (centres unmarked) | 1.94%
Cc1ccc(/C(N)=N/OC(=O)c2ccco2)cc1 | 21.1%
Cc1nn(Cc2ccc(Cl)cc2)c(C)c1N | 11.1%
CCc1ccc(NCCC(=O)c2ccc(Br)cc2)cc1 | 49.5%
CC(C)OCCCNC(=O)NC(=O)c1ccc(Cl)cc1 | -6.21%
